# PubChem BioAssay (Tox21)
# Several values for one entry are separate records, joined by “and”; a condition that tells them apart may be missing. Equal entries are not always repeated. Inconclusive results, whose numbers are uncertain, are shown with a selection of clear calls. For some assays here: A potency beside an inconclusive call is a rough fit, not a confirmed value. Activity calls are given as the source filed them. Calls follow the shape of the dose curve; as a rule, active = well fitted curve in the direction sought with a large enough effect in the repeat runs; inconclusive = weak or mixed curves; inactive = no such curve, though single readings can be large; an effect the other way counts as inactive or inconclusive.
# Assays:
# [1] = qHTS RealTime-Glo MT Cell Viability Assay in HepG2 cells - 16 hour (AID 1224885); also: nearly all actives have a fitted effect of over 50% in size
# Procedure, shortened: (§1)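 Compound treatment began 5 h after plating HepG2 cells (600/well) with NanoLuc luciferase and prosubstrate. Plates stayed at 37 C for 40 h; luminescence was captured at six time points, 0 h through 40 h.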
# [2] = qHTS RealTime-Glo MT Cell Viability Assay in HEK293 cells - 24 hour (AID 1224886); also: nearly all actives have a fitted effect of over 50% in size; also: potency is read from the fitted curve at half-maximal effect
# Procedure, shortened: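 Quantitative high-throughput screen of the Tox21 10K library in HEK293: cells and RealTime-Glo reagents plated together, compound added at 5 h, luminescence monitored through 40 h at 37 C.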
# [3] = qHTS assay to identify small molecule antagonists of the estrogen receptor alpha (ER-alpha) signaling pathway using the BG1 cell line in the presence of 0.1 nM 17-beta-estradiol - cell viability counter screen (AID 1259241); also: nearly all actives have a fitted effect of over 40% in size; also: potency is read from the fitted curve at half-maximal effect
# Procedure, shortened: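 The cell line endogenously expresses full-length ER-alpha and carries four EREs driving luciferase. Cells are cultured 5 days hormone-free, treated 22 hr with compounds and 0.1 nM estradiol, then viability is read by fluorescence.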
# [4] = qHTS RealTime-Glo MT Cell Viability Assay in HEK293 cells - 8 hour (AID 1224887); also: nearly all actives have a fitted effect of over 50% in size; also: potency is read from the fitted curve at half-maximal effect
# Procedure, shortened: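 Luminescence readout at each listed time point; HEK293, 600 cells/well, RealTime-Glo MT reagent added with cells; compounds pinned (23 nL in DMSO) after 5 h at 37 C; continuous culture at 37 C.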
# [5] = qHTS RealTime-Glo MT Cell Viability Assay in HepG2 cells - 0 hour (AID 1224889); also: potency is read from the fitted curve at half-maximal effect; nearly all actives have a fitted effect of over 50% in size
# Procedure, shortened: as §1
# [6] = A CellTox Green Cytotoxicity Assay to monitor cytotoxicity in HEK293 cells - 16 hour (AID 1224888); also: potency is read from the fitted curve at half-maximal effect; nearly all actives have a fitted effect of over 35% in size
# Procedure, shortened: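 Read-out: fluorescence of a cell-impermeant cyanine dye staining DNA of dead cells, proportional to cytotoxicity. HEK293, 600 cells/well with reagent, compound (23 nL DMSO) added after 5 h; reads at 0, 8, 16, 24, 32, 40 h.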
# [7] = A CellTox Green Cytotoxicity Assay to monitor cytotoxicity in HepG2 cells - 8 hour (AID 1224890); also: nearly all actives have a fitted effect of over 45% in size; also: potency is read from the fitted curve at half-maximal effect
# Procedure, shortened: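 HepG2, 600 cells/well premixed w/ CellTox Green; 5 h settle, 37 C/5% CO2; pintool cpd add (DMSO); 37 C, 40 h; fluorescence read at 0, 8, 16, 24, 32, 40 h.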
# Tags tell the direction and shape of the fitted curve.
smiles,measurement,setting,value
CCCOc1ccc2nc(NC(=O)OC)[nH]c2c1,Potency,[1],inactive
same,Potency,[2],"inconclusive: 169 nM [cytotoxic, full curve]"
same,Potency,[3],inactive
CO[C@H]1C=CO[C@@]2(C)Oc3c(C)c(O)c4c(O)c(cc(O)c4c3C2=O)NC(=O)/C(C)=C\C=C/[C@H](C)[C@H](O)[C@@H](C)[C@@H](O)[C@@H](C)[C@H](OC(C)=O)[C@@H]1C,Potency,[1],inactive
same,Potency,[4],"inconclusive: 62.1 µM [cytotoxic, partial curve, poor fit]"
same,Potency,[5],"inconclusive: 24.7 µM [cytotoxic, partial curve]"
same,Potency,[3],active: 27.5 µM
Cc1cc(C)c(NC(=O)CN(CC(=O)O)CC(=O)O)c(C)c1Br,Potency,[4],inactive
CCCCCCCC[N+](CCCCCCCC)(CCCCCCCC)CCCCCCCC,Potency,[2],active: 6150 nM
same,Potency,[6],active: 21.8 µM
same,Potency,[5],"inconclusive: 34.6 µM [cytotoxic, partial curve]"
same,Potency,[7],active: 34.6 µM
same,Potency,[3],active: 61 µM
NC(=Nc1ccccc1)Nc1ccccc1,Potency,[2],"inconclusive: 61.6 µM [cytotoxic, single point] and inconclusive: 535 nM [cytotoxic, partial curve, poor fit]"
same,Potency,[4],"inconclusive: 61.6 µM [cytotoxic, single point]"
same,Potency,[7],"inconclusive: 0.49 µM [activator, single point]"
same,Potency,[3],"inconclusive: 12.2 µM [cytotoxic, full curve, poor fit]"
O=C(OCc1ccccc1)c1ccccc1,Potency,[2],inactive
same,Potency,[7],inactive
same,Potency,[3],"inconclusive: 6.11 µM [cytotoxic, single point]"
